# From PubChem BioAssay AID485281 (National Center for Advancing Translational Sciences (NCATS), 2010)
# Hit rate of the full screen: of about 350,000 compounds, about 260 (0.074%) were called active. The shares of active, inactive and inconclusive entries below differ from those in the screen. Calls follow the shape of the dose curve; as a rule, active = well fitted inhibition curve with a large enough effect; inconclusive = small, poorly fitted or top-dose-only effect; inactive = no such curve, though single readings can be large or run the other way. Where the call is inconclusive, the potency comes from a doubtful curve fit.
# Biological target: Ferritin light chain (Equus caballus) (UniProt P02791)
# Experiment: qHTS Assay for Identification of Novel General Anesthetics; also: nearly all actives have a fitted effect of over 20% in size
# Conditions: apoferritin/1-aminoanthracene competitive binding, fluorescence; series mostly up to 77.5 µM
# Method in brief: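 Apoferritin-based anesthetic binding model; compound displacement of fluorescent 1-AMA measured as endpoint fluorescence after 10 minutes at room temperature, scaled to free-ligand and complex controls.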
# Potency is read from the fitted curve at half-maximal effect; tags tell the direction and shape of the fitted curve.
# Chain of UniProt P02791 (P02791 whole entry, looked up): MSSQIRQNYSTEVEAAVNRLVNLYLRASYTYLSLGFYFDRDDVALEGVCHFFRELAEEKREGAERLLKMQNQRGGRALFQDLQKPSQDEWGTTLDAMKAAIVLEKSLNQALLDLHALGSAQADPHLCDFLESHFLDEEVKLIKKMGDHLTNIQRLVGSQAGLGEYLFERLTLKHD
row,SMILES,Potency
1,CCCCCCSc1nsc(N)n1,active: 8.91 µM
2,O=C(CCc1ccc(Oc2cc([N+](=O)[O-])cc([N+](=O)[O-])c2)cc1)N1CCCCC1,"inconclusive: 39.8 µM [inhibitor, single point]"
3,CCc1cccc(C)c1NC(=O)CSc1nnc(CC)n2c1cc1occc12,"inconclusive: 50.1 µM [inhibitor, single point]"
4,O=C(COC(=O)c1ccccn1)c1cccc(Br)c1,"inconclusive: 31.6 µM [inhibitor, partial curve]"
5,CC(C)COc1ccc(C(=O)CCN2CCCCC2)cc1,"inconclusive: 28.2 µM [inhibitor, partial curve]"
6,COc1ccc(/C=N/NC(=O)CNC(=O)c2ccc3c(c2)OCCO3)cc1OC,"inconclusive: 56.2 µM [inhibitor, single point]"
7,COc1ccc(CNc2ccc3cn[nH]c3c2)c(OC)c1OC,inactive
8,CCc1cc2c(SCC(=O)c3ccc(Cl)s3)ncnc2s1,"inconclusive: 7.94 µM [inhibitor, partial curve]"
9,Clc1ccc(N2CCN(c3ncnc4c3nc3n4CCCC3)CC2)cc1,inactive
10,CC1Sc2ccc(Cl)cc2-c2nc(N)ncc21 (stereo unspecified),"inconclusive: 25.1 µM [inhibitor, partial curve]"
11,Cc1ccc2c(c1)c1ccc3c(c1n2C)C(=O)C=CC3=O,inactive
12,CNc1nc(C)c(C#N)c(-c2ccccc2)c1C(C)=O,"inconclusive: 31.6 µM [inhibitor, partial curve]"
13,Cc1ccccc1Cn1cc(NC(=O)c2nc3ncccn3n2)cn1,"inconclusive: 35.5 µM [inhibitor, partial curve]"
14,C=CCn1c(C)cc(/C([O-])=C(/C(=S)Nc2ccc(OC(F)F)cc2)[n+]2ccc(N(C)C)cc2)c1C,"inconclusive: 39.8 µM [inhibitor, single point]"
15,COc1ccc(C(CCNC(C)c2ccccc2)c2ccc(F)cc2)cc1 (stereo unspecified),inactive
16,Cc1cccc(-n2nnnc2SCC(=O)Nc2cccc(S(N)(=O)=O)c2)c1,inactive
17,Clc1ccc(CSc2ncn[nH]2)cc1,"inconclusive: 15.8 µM [inhibitor, partial curve]"
18,CCOc1ccc(OCC)c(NS(=O)(=O)c2c(C(=O)N3CCC(C)CC3)c(C)n(C)c2C)c1,"inconclusive: 35.5 µM [inhibitor, single point]"
19,CCc1[nH]c(=O)c(C#N)c2c1COC(C)(C)C2,inactive
20,CC1(C)CC(C)(O)N(Cc2ccccc2)C(=S)N1 (stereo unspecified),"inconclusive: 22.4 µM [inhibitor, partial curve]"
21,COc1ccc(S(=O)(=O)NC2CCCC2)c(Cl)c1Cl,"inconclusive: 25.1 µM [inhibitor, partial curve]"
